{"source": "patent US20110020312A1", "about": "“METHODS FOR TREATMENT OF METABOLIC DISORDERS USING EPIMETABOLIC SHIFTERS, MULTIDIMENSIONAL INTRACELLULAR MOLECULES, OR ENVIRONMENTAL INFLUENCERS” (priority 2009, published 2011)", "type_in_all_cases": "cell-based", "key": {"SK-MEL-28 cells [1]": {"tested_on": "SK-MEL-28 cells", "conditions": "Q10 (24 hr), 50 μM"}, "SK-MEL-28 cells [2]": {"tested_on": "SK-MEL-28 cells", "assay": "Real-time PCR Oxidative Stress and Antioxidant Defense Array", "protocol": "The resulting solution was warmed in a 65° C. water bath and vortexed at high speed. […] For the control vehicle, 9.5 mL of media was added to 500 μL of isopropanol. The control stock was further diluted (2 mL of stock) with 8 mL of media. […] Experimental details: […] (SABiosciences, Frederick, Md.). […] Further experiments were carried out using SKMEL-28 cells. […] The PCR array (SABiosciences) is a set of optimized real-time PCR primer assays on 96-well plates for pathway or disease focused genes as well as appropriate RNA quality controls. The PCR array performs gene expression analysis with real-time PCR sensitivity and the multi-gene profiling capability of a microarray."}, "SK-MEL-28 cells [3]": {"tested_on": "SK-MEL-28 cells", "assay": "Real-time PCR Diabetes Array", "protocol": "The formulation of the Q10 was as follows. […] The resulting solution was warmed in a 65° C. water bath and vortexed at high speed. […] For the control vehicle, 9.5 mL of media was added to 500 μL of isopropanol. The control stock was further diluted (2 mL of stock) with 8 mL of media.\n(SABiosciences, Frederick, Md.)."}, "SK-MEL28 cells": {"tested_on": "SK-MEL28 cells", "assay": "Nexin assay for apoptosis, 24 h Q10", "conditions": "50 μM and 100 μM Q10, 24 hours", "description": "The 7AAD dye will enter into cells with permeabilized cell membranes; primarily those cells that are in late apoptosis. Annexin-V-PE is a dye that binds to Phosphotidyl serine, which is exposed on the outer surface of the plasma membrane in early apoptotic cells. The Nexin reagent thus can be used to differentiate between different populations of apoptotic cells in a flow cytometer."}, "[4]": {"conditions": "SK-MEL-28, 100 μM, then (after 48 hours)"}}}
{"smiles": "COC1=C(OC)C(=O)C(C/C=C(\\C)CC/C=C(\\C)CC/C=C(\\C)CC/C=C(\\C)CC/C=C(\\C)CC/C=C(\\C)CC/C=C(\\C)CC/C=C(\\C)CC/C=C(\\C)CCC=C(C)C)=C(C)C1=O", "note": "[Q10, Coenzyme Q10]", "values": [{"measurement": "identified proteins with altered levels (antibody array)", "setting": "SK-MEL-28 cells [1]", "result": "Bcl-x1, Bmf, BTK, BLK, cJun (pSer63), Connexin 32, PUMA bbc3, BID, Par4, cCb1"}, {"measurement": "Forkhead box M1 (FOXM1) mRNA", "setting": "SK-MEL-28 cells [2]; 100 μM Q10", "result": "down regulated"}, {"measurement": "NOX5 (NADPH oxidase) levels", "setting": "SK-MEL-28 cells [2]; 100 μM Q10", "result": "do not change"}, {"measurement": "PREX1 mRNA", "setting": "SK-MEL-28 cells [2]; 100 μM Q10", "result": "upregulated"}, {"measurement": "Neutrophil cytosolic factor 1 (NCF1) mRNA", "setting": "SK-MEL-28 cells [2]; 16 hour time point and onward", "result": "induced at very high levels"}, {"measurement": "MAPK14 mRNA", "setting": "SK-MEL-28 cells [3]; 100 μM Q10", "result": "significantly down-regulated"}, {"measurement": "ADRB3 gene Regulation", "setting": "SK-MEL-28 cells [3]; SK-MEL-28, 100 μM, at 48 hours", "result": "Down Regulated"}, {"measurement": "CEACAM1 gene Regulation", "setting": "SK-MEL-28 cells [3]; SK-MEL-28, 100 μM, at 48 hours", "result": "Down Regulated"}, {"measurement": "CEBPA gene Regulation", "setting": "SK-MEL-28 cells [3]; SK-MEL-28, 100 μM, at 48 hours", "result": "Up regulated at"}, {"measurement": "CTLA4 gene Regulation", "setting": "SK-MEL-28 cells [3]; SK-MEL-28, 100 μM, at 48 hours", "result": "Down Regulated"}, {"measurement": "DUSP4 gene Regulation", "setting": "SK-MEL-28 cells [3]; SK-MEL-28, 100 μM, at 48 hours", "result": "Down Regulated"}, {"measurement": "ENPP1 gene Regulation", "setting": "SK-MEL-28 cells [3]; SK-MEL-28, 100 μM, at 48 hours", "result": "Down Regulated"}, {"measurement": "FOXC2 gene Regulation", "setting": "SK-MEL-28 cells [3]; SK-MEL-28, 100 μM, at 48 hours", "result": "Down Regulated"}, {"measurement": "G6PD gene Regulation", "setting": "SK-MEL-28 cells [3]; SK-MEL-28, 100 μM, at 48 hours", "result": "Up regulated at"}, {"measurement": "HMOX1 gene Regulation", "setting": "SK-MEL-28 cells [3]; SK-MEL-28, 100 μM, at 48 hours", "result": "Down Regulated"}, {"measurement": "ICAM1 gene Regulation", "setting": "SK-MEL-28 cells [3]; SK-MEL-28, 100 μM, at 48 hours", "result": "Down Regulated"}, {"measurement": "IL4R gene Regulation", "setting": "SK-MEL-28 cells [3]; SK-MEL-28, 100 μM, at 48 hours", "result": "Down Regulated"}, {"measurement": "IRS1 gene Regulation", "setting": "SK-MEL-28 cells [3]; SK-MEL-28, 100 μM, at 48 hours", "result": "Up regulated at"}, {"measurement": "IRS2 gene Regulation", "setting": "SK-MEL-28 cells [3]; SK-MEL-28, 100 μM, at 48 hours", "result": "Down Regulated"}, {"measurement": "NKX2-1 gene Regulation", "setting": "SK-MEL-28 cells [3]; SK-MEL-28, 100 μM, at 48 hours", "result": "Down Regulated"}, {"measurement": "NSF gene Regulation", "setting": "SK-MEL-28 cells [3]; SK-MEL-28, 100 μM, at 48 hours", "result": "Down Regulated"}, {"measurement": "PIK3CD gene Regulation", "setting": "SK-MEL-28 cells [3]; SK-MEL-28, 100 μM, at 48 hours", "result": "Down Regulated"}, {"measurement": "PPARG gene Regulation", "setting": "SK-MEL-28 cells [3]; SK-MEL-28, 100 μM, at 48 hours", "result": "Down Regulated"}, {"measurement": "PRKCB1 gene Regulation", "setting": "SK-MEL-28 cells [3]; SK-MEL-28, 100 μM, at 48 hours", "result": "Down Regulated"}, {"measurement": "SELL gene Regulation", "setting": "SK-MEL-28 cells [3]; SK-MEL-28, 100 μM, at 48 hours", "result": "Down Regulated"}, {"measurement": "SREBF1 gene Regulation", "setting": "SK-MEL-28 cells [3]; SK-MEL-28, 100 μM, at 48 hours", "result": "Up regulated at"}, {"measurement": "STXBP1 gene Regulation", "setting": "SK-MEL-28 cells [3]; SK-MEL-28, 100 μM, at 48 hours", "result": "Down Regulated"}, {"measurement": "TGFB1 gene Regulation", "setting": "SK-MEL-28 cells [3]; SK-MEL-28, 100 μM, at 48 hours", "result": "Up regulated at"}, {"measurement": "TNF gene Regulation", "setting": "SK-MEL-28 cells [3]; SK-MEL-28, 100 μM, at 48 hours", "result": "Up regulated at"}, {"measurement": "VEGFA gene Regulation", "setting": "SK-MEL-28 cells [3]; SK-MEL-28, 100 μM, at 58 hours", "result": "Up regulated at"}, {"measurement": "TNFRSF1A gene Regulation", "setting": "SK-MEL-28 cells [3]; SK-MEL-28, 100 μM, at 72 hours", "result": "Down Regulated"}, {"measurement": "G6PD gene Regulation", "setting": "SK-MEL-28 cells [3]; [4]", "result": "down regulated"}, {"measurement": "IRS1 gene Regulation", "setting": "SK-MEL-28 cells [3]; [4]", "result": "down regulated"}, {"measurement": "SREBF1 gene Regulation", "setting": "SK-MEL-28 cells [3]; [4]", "result": "down regulated"}, {"measurement": "TGFB1 gene Regulation", "setting": "SK-MEL-28 cells [3]; [4]", "result": "down regulated"}, {"measurement": "VEGFA gene Regulation", "setting": "SK-MEL-28 cells [3]; SK-MEL-28, 100 μM, then (after 58 hours)", "result": "down regulated"}, {"measurement": "expression of the nuclear receptor protein HNF4A", "setting": "SK-MEL-28 cells [3]; cells following Q10 treatment", "result": "upmodulated"}, {"measurement": "early/late apoptotic population", "setting": "SK-MEL28 cells", "result": "increase only in early apoptotic population"}]}
